{
  "source": "patent US12421317B2",
  "about": "“Polynucleotides encoding anti-glucagon-like peptide 1 receptor (GLP1R) antagonist antibodies” (Regeneron Pharmaceuticals, Inc., priority 2020, dated 2025)",
  "key": {"[1]": {"target": "T1, hGLP1R-mFc (human GLP1R expressed with mouse IgG2a Fc) (Homo sapiens, UniProt P43220)", "T1 construct": "human GLP1R expressed with mouse IgG2a Fc (hGLP1R-mFc)", "T1 sequence (P43220 with tags, fused parts or gaps)": "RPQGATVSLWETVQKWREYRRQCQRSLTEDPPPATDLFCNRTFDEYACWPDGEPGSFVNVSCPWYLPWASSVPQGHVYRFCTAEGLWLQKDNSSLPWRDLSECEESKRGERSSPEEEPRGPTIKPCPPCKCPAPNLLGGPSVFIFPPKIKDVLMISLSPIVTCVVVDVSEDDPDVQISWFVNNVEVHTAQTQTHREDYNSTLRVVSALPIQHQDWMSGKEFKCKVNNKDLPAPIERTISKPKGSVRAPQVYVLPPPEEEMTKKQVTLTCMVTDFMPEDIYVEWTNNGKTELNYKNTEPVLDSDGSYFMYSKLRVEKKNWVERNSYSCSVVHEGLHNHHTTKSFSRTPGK", "experiment": "SPR (Biacore 4000) binding of captured GLP1R mAbs to hGLP1R-mFc", "protocol": "The equilibrium dissociation constant (KD) for GLP1R binding to selected GLP1R monoclonal antibodies (mAbs) was determined using a real-time surface plasmon resonance biosensor using a Biacore 4000 instrument. All binding studies were performed in 10 mM HEPES, 150 mM NaCl, 3 mM EDTA, and 0.05% v/v Surfactant Tween-20, pH 7.4 (HBS-ET) running buffer at 25° C. and 37° C. The Biacore CM5 sensor chip surface was first derivatized by amine coupling with human Fc specific mouse mAb to capture different GLP1R mAbs. Different concentrations (100, 25, and 6.25 nM) of the N-terminal region of human GLP1R-MMH (hGLP1R-MMH; SEQ ID NO: 59), human GLP1R expressed with mouse IgG2a Fc (hGLP1R-mFc; SEQ ID NO: 63), an in-line fusion protein of human desA-GLP1 and GLP1R-MMH (hdesA-GLP1_GLP1R-MMH; SEQ ID NO: 62), Macaca fascicularis GLP1R-MMH (mfGLP1R-MMH; SEQ ID NO: 60) or 100 nM mouse GLP1R-MMH (mGLP1R-MMH; SEQ ID NO: 61) prepared in HBS-ET running buffer were injected over the GLP1R mAb captured surface for 150 sec at a flow rate of 30 μL/min and their dissociation in HBS-ET running buffer was monitored for 10 minutes. At the end of each cycle, the GLP1R mAb capture surface was regenerated using a 12 sec injection of 20 mM phosphoric acid.\nThe association rate (ka) and dissociation rate (Kd) were determined by fitting the real-time binding sensorgrams to a 1:1 binding model with mass transport limitation using Scrubber 2.0 c curve-fitting software. Binding dissociation equilibrium constant (KD) and dissociative half-life (t½) were calculated from the kinetic rates as: […]"}, "GLP1R humanized mice": {"tested_on": "GLP1R humanized mice", "experiment": "GLP1-induced hypoglycemia (Exendin-4 challenge) in GLP1R humanized mice, glucose AUC (Example 6)", "type": "in vivo", "details": "for Normalized glucose AUC during Exendin-4 challenge: Exendin-4 at 0-min, mean", "protocol": "Thirty-nine, 2.5-month-old male GLP1R humanized mice were randomly divided into one group of sixteen mice, two groups of eight mice, and one group of seven mice. On Day 0, the group of sixteen animals (Groups 1 and 2) were administered subcutaneously (s.c.) with a hIgG4 isotype control antibody (referred to as isotype control, dose of 10 mg/kg). […] The group of seven animals (Group 5) was administered s.c. (dose of 10 mg/kg) with mAb36986. […] […] At the same time point, animals in Groups 3, 4, and 5 were administered i.p. with Exendin-4 (dose of 0.01 mg/kg). For all animals, blood glucose levels were measured with a handheld glucometer immediately before and 15, 30, 60, and 120 minutes after saline or Exendin-4 administration. All animals remained in their assigned groups until the study completion on Day 80. With animals in Groups 1, 2, 4, and 5, the Exendin-4 challenge was repeated on Days 3, 7, 15, 21, 29, 65, and 80.\nThe AUC value of each animal at each challenge was normalized to the mean AUC value of Group 1. Statistical analyses were performed by one-way ANOVA followed by Bonferroni post-hoc tests, comparing Groups 1, 3, 4, or 5 to Group 2, for each challenge."}},
  "note": "Marks after values point to notes of the source that are not given here.",
  "data": [
    {"molecule": "mAb36986: fully human anti-GLP1R antagonist antibody; HCVR/LCVR SEQ ID NOs: 2/10; heavy/light chain 18/20 (antibody, fully human anti-GLP1R antagonist antibody; heavy/light chain 18/20) heavy: QVQLVQSGTEVKKPGASVKVSCMASGYTFTTYGISWVRQAPGQGLEWMGWISAYNGNTKYAQRLQGRVTMTTDTSTTTAYMGLRGLRSDDTAVYFCARVTLSGRFDYWGQGTLVTVSPASTKGPSVFPLAPCSRSTSESTAALGCLVKDYFPEPVTVSWNSGALTSGVHTFPAVLQSSGLYSLSSVVTVPSSSLGTKTYTCNVDHKPSNTKVDKRV[human IgG4 Fc with S228P (EU numbers) not printed] light: DIQMTQSPSSLSASVGDRVTITCQASQDISDYLNWYQQKPGKAPKLLIYDASNLETGVPSRFSGSGSGTDFTFTIRSLQPEDIATYYCQQYDNLPYTFGQGTKLEIKRTVAAPSVFIFPPSDEQLKSGTASVVCLLNNFYPREAKVQWKVDNALQSGNSQESVTEQDSKDSTYSLSSTLTLSKADYEKHKVYACEVTHQGLSSPVTKSFNRGEC", "values": [
      {"measurement": "ka", "setting": "[1]; 25° C.", "result": 104000, "unit": "M⁻¹ s⁻¹"},
      {"measurement": "kd", "setting": "[1]; 25° C.", "result": "7.64e-05", "unit": "s⁻¹"},
      {"measurement": "ka", "setting": "[1]; 37° C.", "result": 129000, "unit": "M⁻¹ s⁻¹"},
      {"measurement": "kd", "setting": "[1]; 37° C.", "result": 0.000432, "unit": "s⁻¹"},
      {"measurement": "correction of Exendin-4 induced hypoglycemia", "setting": "GLP1R humanized mice; 10 mg/kg s.c.", "result": "correction of Exendin-4 induced hypoglycemia when Exendin-4 challenge was performed 1, 3, 7, 15, 21, 29, and 65 days post mAb36986 administration, but not when the challenge was performed 80 days post mAb36986 administration"},
      {"measurement": "Normalized glucose AUC during Exendin-4 challenge", "setting": "GLP1R humanized mice; 1 d (= 24 h) post test article, test article 3 mg/kg s.c.", "result": "96.5**** % of Group 1"},
      {"measurement": "Normalized glucose AUC during Exendin-4 challenge", "setting": "GLP1R humanized mice; 1 d (= 24 h) post test article, test article 10 mg/kg s.c.", "result": "106.7**** % of Group 1"},
      {"measurement": "Normalized glucose AUC during Exendin-4 challenge", "setting": "GLP1R humanized mice; 3 d post test article, test article 3 mg/kg s.c.", "result": "108.7**** % of Group 1"},
      {"measurement": "Normalized glucose AUC during Exendin-4 challenge", "setting": "GLP1R humanized mice; 3 d post test article, test article 10 mg/kg s.c.", "result": "116.6**** % of Group 1"},
      {"measurement": "Normalized glucose AUC during Exendin-4 challenge", "setting": "GLP1R humanized mice; 7 d post test article, test article 3 mg/kg s.c.", "result": "108.6**** % of Group 1"},
      {"measurement": "Normalized glucose AUC during Exendin-4 challenge", "setting": "GLP1R humanized mice; 7 d post test article, test article 10 mg/kg s.c.", "result": "107.7**** % of Group 1"},
      {"measurement": "Normalized glucose AUC during Exendin-4 challenge", "setting": "GLP1R humanized mice; 15 d post test article, test article 3 mg/kg s.c.", "result": "102.2**** % of Group 1"},
      {"measurement": "Normalized glucose AUC during Exendin-4 challenge", "setting": "GLP1R humanized mice; 15 d post test article, test article 10 mg/kg s.c.", "result": "107.5**** % of Group 1"},
      {"measurement": "Normalized glucose AUC during Exendin-4 challenge", "setting": "GLP1R humanized mice; 21 d post test article, test article 3 mg/kg s.c.", "result": "93.2*** % of Group 1"},
      {"measurement": "Normalized glucose AUC during Exendin-4 challenge", "setting": "GLP1R humanized mice; 21 d post test article, test article 10 mg/kg s.c.", "result": "108.7**** % of Group 1"},
      {"measurement": "Normalized glucose AUC during Exendin-4 challenge", "setting": "GLP1R humanized mice; 29 d post test article, test article 3 mg/kg s.c.", "result": "84.0*** % of Group 1"},
      {"measurement": "Normalized glucose AUC during Exendin-4 challenge", "setting": "GLP1R humanized mice; 29 d post test article, test article 10 mg/kg s.c.", "result": "103.5**** % of Group 1"},
      {"measurement": "Normalized glucose AUC during Exendin-4 challenge", "setting": "GLP1R humanized mice; 65 d post test article, test article 3 mg/kg s.c.", "result": "67.4 % of Group 1"},
      {"measurement": "Normalized glucose AUC during Exendin-4 challenge", "setting": "GLP1R humanized mice; 65 d post test article, test article 10 mg/kg s.c.", "result": "95.8**** % of Group 1"},
      {"measurement": "Normalized glucose AUC during Exendin-4 challenge", "setting": "GLP1R humanized mice; 80 d post test article, test article 3 mg/kg s.c.", "result": "70.4 % of Group 1"},
      {"measurement": "Normalized glucose AUC during Exendin-4 challenge", "setting": "GLP1R humanized mice; 80 d post test article, test article 10 mg/kg s.c.", "result": "74.2 % of Group 1"},
      {"measurement": "correction of Exendin-4 induced hypoglycemia", "setting": "GLP1R humanized mice; single 3 mg/kg dose s.c.", "result": "correction of Exendin-4 induced hypoglycemia when Exendin-4 challenge was performed 1, 3, 7, 15, 21, and 29 days post mAb36986 administration, but not when the challenge was performed 65 and 80 days post mAb36986 administration"},
      {"measurement": "duration of correction of GLP1-induced hypoglycemia", "setting": "GLP1R humanized mice; single dose, mice", "result": "one to two months"}
    ]},
    {"molecule": "mAb37639: fully human anti-GLP1R antagonist antibody; HCVR/LCVR SEQ ID NOs: 22/30; heavy/light chain 36/38 (antibody, fully human anti-GLP1R antagonist antibody; heavy/light chain 36/38) heavy: EVQLLESGGGVVQPGGSLRLSCVASGFTFSSYAMSWVRQAPGKGLEWVSSISGSGGSTDNADSVKGRFTISRDNSKNTLYLQMNSLRAEDTAVYYCAKDRITIFGVVLNGAFDIWGQGTMVTVSSASTKGPSVFPLAPCSRSTSESTAALGCLVKDYFPEPVTVSWNSGALTSGVHTFPAVLQSSGLYSLSSVVTVPSSSLGTKTYTCNVDHKPSNTKVDKRV[human IgG4 Fc with S228P (EU numbers) not printed] light: DIQMTQSPSSLSASVGDRVTITCQASQDIRNYLNWYQQKPGKAPKLLIYDASNLETGVPSRFSGSGSGTDFTFTISSLQPEDIATYFCQQYDNLFTFGPGTKVDIKRTVAAPSVFIFPPSDEQLKSGTASVVCLLNNFYPREAKVQWKVDNALQSGNSQESVTEQDSKDSTYSLSSTLTLSKADYEKHKVYACEVTHQGLSSPVTKSFNRGEC", "values": [
      {"measurement": "ka", "setting": "[1]; 25° C.", "result": 65900, "unit": "M⁻¹ s⁻¹"},
      {"measurement": "kd", "setting": "[1]; 25° C.", "result": 0.000156, "unit": "s⁻¹"},
      {"measurement": "ka", "setting": "[1]; 37° C.", "result": 101000, "unit": "M⁻¹ s⁻¹"},
      {"measurement": "kd", "setting": "[1]; 37° C.", "result": 0.000354, "unit": "s⁻¹"}
    ]}
  ]
}
